# In ChEMBL document CHEMBL5606460, “ASAP - DENV-2 NS2B-NS3 protease fluorescence single point” (2024):
# The campaign covered roughly 2,000 compounds. About 110 (5.5%) showed an effect of 50% or more. Some of the results follow.
# Biological target: Genome polyprotein (dengue virus type 2) (UniProt P29990)
# [1] = Thailand/16681/1984, Concentration 25.0 uM, Number of replicates 1.0
structure (smiles),measurement,setting,value
Cc1nc2cc(CN3CCC[C@H](c4cc5ccccc5[nH]4)C3)ccc2[nH]1,inhibition,"Thailand/16681/1984, Concentration 49.5 uM, Number of replicates 2.0, Standard deviation 2.2283132795181855 %",-2.12%
same,inhibition,"Thailand/16681/1984, Concentration 99.01 uM, Number of replicates 2.0, Standard deviation 2.713518462728271 %",-0.915%
same,inhibition,"Thailand/16681/1984, Concentration 198.0 uM, Number of replicates 2.0, Standard deviation 3.2458212740095824 %",0.864%
Cc1cc(-c2nn(C)cc2NC(=O)c2ccccc2C(F)(F)F)[nH]n1,inhibition,"Thailand/16681/1984, Concentration 49.5 uM, Number of replicates 2.0, Standard deviation 1.752059665463329 %",-5.04%
same,inhibition,"Thailand/16681/1984, Concentration 99.01 uM, Number of replicates 2.0, Standard deviation 1.607181728168465 %",-4.72%
same,inhibition,"Thailand/16681/1984, Concentration 198.0 uM, Number of replicates 2.0, Standard deviation 0.9745469110141209 %",-1.85%
Cc1nc([C@H]2CCCNC2)[nH]c1C(=O)Nc1cc(-c2cccnc2)n[nH]1,inhibition,"Thailand/16681/1984, Concentration 49.5 uM, Number of replicates 2.0, Standard deviation 2.201855131750138 %",-3.46%
same,inhibition,"Thailand/16681/1984, Concentration 99.01 uM, Number of replicates 2.0, Standard deviation 1.858065153444822 %",-1.45%
same,inhibition,"Thailand/16681/1984, Concentration 198.0 uM, Number of replicates 2.0, Standard deviation 1.383155203311006 %",1%
NCc1cccc(NC(=O)[C@H]2CN(C(=O)OCc3ccccc3)CC23CCOCC3)c1,inhibition,"Thailand/16681/1984, Concentration 49.5 uM, Number of replicates 2.0, Standard deviation 3.4820905640560142 %",-2.83%
same,inhibition,"Thailand/16681/1984, Concentration 99.01 uM, Number of replicates 2.0, Standard deviation 3.010767204046265 %",-1.08%
same,inhibition,"Thailand/16681/1984, Concentration 198.0 uM, Number of replicates 2.0, Standard deviation 2.6769829613344203 %",-0.776%
Nc1nc(CN2CCNCC2)nc2ccccc12,inhibition,"Thailand/16681/1984, Concentration 49.95 uM, Number of replicates 2.0, Standard deviation 3.1670645770640644 %",-6.82%
same,inhibition,"Thailand/16681/1984, Concentration 99.9 uM, Number of replicates 2.0, Standard deviation 4.39111425635431 %",-5.57%
CN(C)C1(CNC(=O)C2CCN(c3ccc(C=O)cc3)CC2)CCOCC1,inhibition,[1],12.1%
CCCN(C(=O)C1CCN(c2ccc(C=O)cc2)CC1)[C@@H](C)c1ccccc1,inhibition,[1],14.3%
CSCC(=O)Nc1ccc(Cl)c2cccnc12,inhibition,"Thailand/16681/1984, Concentration 49.95 uM, Number of replicates 2.0, Standard deviation 4.284996583998793 %",-8.76%
same,inhibition,"Thailand/16681/1984, Concentration 99.9 uM, Number of replicates 2.0, Standard deviation 5.022059659232943 %",-8.17%
O=Cc1ccc(N2CCC(C(=O)Nc3cnn(-c4ccccc4)c(=O)c3Cl)CC2)cc1,inhibition,[1],12.9%
CC(=O)N[C@@H](CCCCN)C(=O)Nc1cccc2c(CO)cc(C)nc12,inhibition,"Thailand/16681/1984, Concentration 49.95 uM, Number of replicates 2.0, Standard deviation 0.7189645441339965 %",35.5%
same,inhibition,"Thailand/16681/1984, Concentration 99.9 uM, Number of replicates 2.0, Standard deviation 0.1513618084697797 %",97.4%
Cc1cnccc1NC(=O)c1cc(C2CCCC2)n(C)c1C,inhibition,"Thailand/16681/1984, Concentration 49.5 uM, Number of replicates 2.0, Standard deviation 1.895573393565592 %",-3.53%
same,inhibition,"Thailand/16681/1984, Concentration 99.01 uM, Number of replicates 2.0, Standard deviation 0.7217418528634704 %",-1.88%
same,inhibition,"Thailand/16681/1984, Concentration 198.0 uM, Number of replicates 2.0, Standard deviation 1.3851925911876457 %",0.718%
CCN(C(=O)c1cc(C)cc2cn[nH]c12)[C@H]1CCN(C(=O)c2nc(N)ccc2C)C1,inhibition,"Thailand/16681/1984, Concentration 49.5 uM, Number of replicates 2.0, Standard deviation 0.8740799509321564 %",-1.8%
same,inhibition,"Thailand/16681/1984, Concentration 99.01 uM, Number of replicates 2.0, Standard deviation 0.47840373553163984 %",-2.19%
same,inhibition,"Thailand/16681/1984, Concentration 198.0 uM, Number of replicates 2.0, Standard deviation 1.664888518800005 %",-4.37%
Cc1cc(CO)c2cccc(NC(=O)c3nc(-c4ccccc4)oc3C(F)(F)F)c2n1,inhibition,"Thailand/16681/1984, Concentration 49.95 uM, Number of replicates 2.0, Standard deviation 3.021297847027803 %",28.1%
same,inhibition,"Thailand/16681/1984, Concentration 99.9 uM, Number of replicates 2.0, Standard deviation 2.6625533133971393 %",43.6%
O=Cc1ccc(N2CCC(C(=O)Nc3ccc4c(c3)OCCO4)CC2)cc1,inhibition,[1],7.28%
O=Cc1ccc(N2CCC(C(=O)N[C@@H](c3ccccc3)c3ccc(Br)cc3)CC2)cc1,inhibition,[1],-4.37%
COc1cc(CNC(=O)C2CCN(c3ccc(C=O)cc3)CC2)cc(OC)c1,inhibition,[1],11.4%
CC(C)(CO)NC(=O)c1cc(Cl)cc(NS(=O)(=O)c2ccccc2)c1,inhibition,"Thailand/16681/1984, Concentration 49.5 uM, Number of replicates 2.0, Standard deviation 0.43077113751226487 %",-5.72%
same,inhibition,"Thailand/16681/1984, Concentration 99.01 uM, Number of replicates 2.0, Standard deviation 0.028975789763845603 %",-4.57%
same,inhibition,"Thailand/16681/1984, Concentration 198.0 uM, Number of replicates 2.0, Standard deviation 1.4999717780869397 %",-2.99%
Cc1cc(CO)c2cccc(Cc3ccccc3NC(=O)Cc3c(C)c4c(=O)[nH]n(C)c4[nH]c3=O)c2n1,inhibition,"Thailand/16681/1984, Concentration 49.95 uM, Number of replicates 2.0, Standard deviation 2.5458058686723866 %",22.5%
same,inhibition,"Thailand/16681/1984, Concentration 99.9 uM, Number of replicates 2.0, Standard deviation 1.6741240734205003 %",45.5%
O=C(Nc1ccn(C2CCC2)n1)c1ccn([C@H]2CCCNC2)n1,inhibition,"Thailand/16681/1984, Concentration 49.5 uM, Number of replicates 2.0, Standard deviation 1.9181978218462399 %",-3.58%
same,inhibition,"Thailand/16681/1984, Concentration 99.01 uM, Number of replicates 2.0, Standard deviation 11.711213803316953 %",6.41%
same,inhibition,"Thailand/16681/1984, Concentration 198.0 uM, Number of replicates 2.0, Standard deviation 0.15914093659313241 %",-3.38%
O=Cc1ccc(N2CCC(C(=O)N3CCN(CCc4ccncc4)CC3)CC2)cc1,inhibition,[1],9.91%
CNC(=O)c1nccnc1NS(=O)(=O)c1ccc(Oc2ccccc2Cl)cc1,inhibition,"Thailand/16681/1984, Concentration 49.5 uM, Number of replicates 2.0, Standard deviation 1.5095148361141704 %",0.146%
same,inhibition,"Thailand/16681/1984, Concentration 99.01 uM, Number of replicates 2.0, Standard deviation 1.499470483470751 %",2.7%
same,inhibition,"Thailand/16681/1984, Concentration 198.0 uM, Number of replicates 2.0, Standard deviation 0.45486328764545614 %",7.74%
Cc1cc(CO)c2cccc(Cc3ccccc3C(=O)Nc3cc(C)on3)c2n1,inhibition,"Thailand/16681/1984, Concentration 49.95 uM, Number of replicates 2.0, Standard deviation 1.5788782649320652 %",8.61%
same,inhibition,"Thailand/16681/1984, Concentration 99.9 uM, Number of replicates 2.0, Standard deviation 0.4297535440018178 %",25.7%
